Measured values from the supplement of paper PMC8728848.
The other results are listed elsewhere or left out.

What was measured:
Assay in all cases: glycan array binding signal (z-score within array); higher = stronger binding
Conditions in all cases: glycan notation: IUPAC condensed, linker removed
Fuc(a1-2)Gal = target: Fuc(a1-2)Gal
In short: (§1)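 From the Consortium for Functional Glycomics database, 3228 arrays were curated, keeping only those whose protein sequence was available. Binding is given as a within-array Z-score averaged across arrays sharing a protein sequence and across linkers. Negative Z-scores can be read as non-binding.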

Fuc(a1-2)Gal(b1-3)GalNAc = target: Fuc(a1-2)Gal(b1-3)GalNAc
In short: as §1

[1] = target: Fuc(a1-2)Gal(b1-3)GalNAc(a1-3)[Fuc(a1-2)]Gal(b1-4)Glc
In short: as §1

[2] = target: Fuc(a1-2)Gal(b1-3)GalNAc(a1-3)[Fuc(a1-2)]Gal(b1-4)GlcNAc
In short: as §1

[3] = target: Fuc(a1-2)Gal(b1-3)GalNAc(b1-3)Gal
In short: as §1

[4] = target: Fuc(a1-2)Gal(b1-3)GalNAc(b1-3)Gal(a1-4)Gal(b1-4)Glc
In short: as §1

[5] = target: Fuc(a1-2)Gal(b1-3)GalNAc(b1-4)[Neu5Ac(a2-3)]Gal(b1-4)Glc
In short: as §1

Fuc(a1-2)Gal(b1-3)GlcNAc = target: Fuc(a1-2)Gal(b1-3)GlcNAc
In short: as §1

[6] = target: Fuc(a1-2)Gal(b1-3)GlcNAc(b1-2)Man(a1-3)[Fuc(a1-2)Gal(b1-3)GlcNAc(b1-2)Man(a1-6)]Man(b1-4)GlcNAc(b1-4)GlcNAc
In short: as §1

[7] = target: Fuc(a1-2)Gal(b1-3)GlcNAc(b1-2)Man(a1-3)[Fuc(a1-2)Gal(b1-3)GlcNAc(b1-2)Man(a1-6)]Man(b1-4)GlcNAc(b1-4)[Fuc(a1-6)]GlcNAc
In short: as §1

[8] = target: Fuc(a1-2)Gal(b1-3)GlcNAc(b1-3)Gal(b1-4)Glc
In short: as §1

[9] = target: Fuc(a1-2)Gal(b1-3)GlcNAc(b1-3)GalNAc
In short: as §1

[10] = target: Fuc(a1-2)Gal(b1-3)GlcNAc(b1-3)[Fuc(a1-2)Gal(b1-3)GlcNAc(b1-6)]GalNAc
In short: as §1

[11] = target: Fuc(a1-2)Gal(b1-3)GlcNAc(b1-3)[Gal(b1-4)GlcNAc(b1-6)]Gal(b1-4)Glc
In short: as §1

[12] = target: Fuc(a1-2)Gal(b1-3)GlcNAc(b1-3)[Neu5Ac(a2-6)Gal(b1-4)GlcNAc(b1-6)]Gal(b1-4)Glc
In short: as §1

[13] = target: Fuc(a1-2)Gal(b1-3)GlcNAc6S
In short: as §1

[14] = target: Fuc(a1-2)Gal(b1-3)[Fuc(a1-4)]GlcNAc
In short: as §1

[15] = target: Fuc(a1-2)Gal(b1-3)[Fuc(a1-4)]GlcNAc(b1-2)Man(a1-3)[Fuc(a1-2)Gal(b1-3)[Fuc(a1-4)]GlcNAc(b1-2)Man(a1-3)]Man(b1-4)GlcNAc(b1-4)GlcNAc
In short: as §1

[16] = target: Fuc(a1-2)Gal(b1-3)[Fuc(a1-4)]GlcNAc(b1-2)Man(a1-3)[Fuc(a1-2)Gal(b1-3)[Fuc(a1-4)]GlcNAc(b1-2)Man(a1-6)]Man(b1-4)GlcNAc(b1-4)[Fuc(a1-6)]GlcNAc(b1-4)[Fuc(a1-6)]GlcNAc
In short: as §1

[17] = target: Fuc(a1-2)Gal(b1-3)[Fuc(a1-4)]GlcNAc(b1-3)[Fuc(a1-3)[Gal(b1-4)]GlcNAc(b1-6)]Gal(b1-4)Glc
In short: as §1

[18] = target: Fuc(a1-2)Gal(b1-3)[Fuc(a1-4)]GlcNAc(b1-3)[Gal(b1-4)GlcNAc(b1-6)]Gal(b1-4)Glc
In short: as §1

Fuc(a1-2)Gal(b1-4)Glc = target: Fuc(a1-2)Gal(b1-4)Glc
In short: as §1

Fuc(a1-2)Gal(b1-4)Glc6S = target: Fuc(a1-2)Gal(b1-4)Glc6S
In short: as §1

Fuc(a1-2)Gal(b1-4)GlcNAc = target: Fuc(a1-2)Gal(b1-4)GlcNAc
In short: as §1

[19] = target: Fuc(a1-2)Gal(b1-4)GlcNAc(b1-2)Man
In short: as §1

[20] = target: Fuc(a1-2)Gal(b1-4)GlcNAc(b1-2)Man(a1-3)[Fuc(a1-2)Gal(b1-4)GlcNAc(b1-2)Man(a1-6)]Man(b1-4)GlcNAc(b1-4)GlcNAc
In short: as §1

[21] = target: Fuc(a1-2)Gal(b1-4)GlcNAc(b1-2)Man(a1-3)[Fuc(a1-2)Gal(b1-4)GlcNAc(b1-2)Man(a1-6)]Man(b1-4)GlcNAc(b1-4)[Fuc(a1-6)]GlcNAc
In short: as §1

[22] = target: Fuc(a1-2)Gal(b1-4)GlcNAc(b1-2)[Fuc(a1-2)Gal(b1-4)GlcNAc(b1-4)]Man(a1-3)[Fuc(a1-2)Gal(b1-4)GlcNAc(b1-2)Man(a1-6)]Man(b1-4)GlcNAc(b1-4)GlcNAc
In short: as §1

[23] = target: Fuc(a1-2)Gal(b1-4)GlcNAc(b1-3)Gal(b1-4)GlcNAc
In short: as §1

[24] = target: Fuc(a1-2)Gal(b1-4)GlcNAc(b1-3)Gal(b1-4)GlcNAc(b1-2)Man(a1-3)[Fuc(a1-2)Gal(b1-4)GlcNAc(b1-3)Gal(b1-4)GlcNAc(b1-2)Man(a1-6)]Man(b1-4)GlcNAc(b1-4)GlcNAc
In short: as §1

B1: Mermaid3 (Stilbonema majum) (protein)
chain: MGSSHHHHHHSSGLVPRGSHMAASGWLRSPQGTVVKLYRRSLSWSKADEFCKDVDGRLVVDRTADMHLFLIKNVLKEKKSRVWVGLRRTASHSRTWIWSDGTRQNEGDLDANLWLRDEPNDAAGEEECALFMYSPWEKAWGLNDYLCRGGCRNYQFICEKWIR
Fuc(a1-2)Gal
  glycan array binding signal (z-score): 0.736
Fuc(a1-2)Gal(b1-3)GalNAc
  glycan array binding signal (z-score): -0.827
[1]
  glycan array binding signal (z-score): -0.81
[2]
  glycan array binding signal (z-score): -0.568
[3]
  glycan array binding signal (z-score): -0.484
[4]
  glycan array binding signal (z-score): -0.196
[5]
  glycan array binding signal (z-score): -0.518
Fuc(a1-2)Gal(b1-3)GlcNAc
  glycan array binding signal (z-score): -0.49
[6]
  glycan array binding signal (z-score): 2.35
[7]
  glycan array binding signal (z-score): 0.566
[8]
  glycan array binding signal (z-score): -0.249
[9]
  glycan array binding signal (z-score): -0.508
[10]
  glycan array binding signal (z-score): 0.961
[11]
  glycan array binding signal (z-score): -0.653
[12]
  glycan array binding signal (z-score): -0.703
[13]
  glycan array binding signal (z-score): -0.429
[14]
  glycan array binding signal (z-score): -0.224
[15]
  glycan array binding signal (z-score): 0.726
[16]
  glycan array binding signal (z-score): -0.465
[17]
  glycan array binding signal (z-score): -0.531
[18]
  glycan array binding signal (z-score): -0.697
Fuc(a1-2)Gal(b1-4)Glc
  glycan array binding signal (z-score): -0.578
Fuc(a1-2)Gal(b1-4)Glc6S
  glycan array binding signal (z-score): 0.26
Fuc(a1-2)Gal(b1-4)GlcNAc
  glycan array binding signal (z-score): -0.526
[19]
  glycan array binding signal (z-score): 0.063
[20]
  glycan array binding signal (z-score): -0.201
[21]
  glycan array binding signal (z-score): 0.548
[22]
  glycan array binding signal (z-score): -0.628
[23]
  glycan array binding signal (z-score): -0.525
[24]
  glycan array binding signal (z-score): 0.368
